Laboratory results from PubChem BioAssay (NCATS).
“And” between values parts separate entries of the source, which are not always exact repeats. Equal entries are not always repeated. The inconclusive results got no clear call from the source; some entries with a clear call stand among them for comparison. Potencies of inconclusive entries are doubtful fits and often do not repeat. More than one record can exist for a structure, and the calls need not agree. The source made the active and inactive calls. Calls follow the shape of the dose curve; as a rule, active = well fitted curve in the direction sought with a large enough effect; inconclusive = small, poorly fitted or top-dose-only effect, or another doubt; inactive = no such curve, though single readings can be large; an effect the other way counts as inactive or inconclusive.

Legend:
[1] = system: CASKI; assay: Primary qHTS to identify gynecologic anti-cancer compounds using libraries of approved drugs and bioactive compounds (AID 1345084); details: Gynecologic cancer cell panel viability, ATPlite luminescence, 48 h; series mostly up to 57.5 µM; also: nearly all actives have a fitted effect of over 55% in size
Outline: (§1)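 In this quantitative HTS, cell killing is estimated from loss of ATP-dependent luciferase light. Cells see five compound concentrations over a 48 h exposure.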

[2] = system: Es-2; assay: as above; details: Gynecologic cancer cell panel viability, ATPlite luminescence, 48 h; series mostly up to 57.5 µM
Outline: as §1

[3] = system: HeLa; assay: as above; details: Gynecologic cancer cell panel viability, ATPlite luminescence, 48 h; series mostly up to 57.5 µM
Outline: as §1

[4] = system: Hek293T; assay: as above; details: Gynecologic cancer cell panel viability, ATPlite luminescence, 48 h, control line for the selectivity index; series mostly up to 57.5 µM
Outline: as §1

[5] = system: JEG-3; assay: as above; details: Gynecologic cancer cell panel viability, ATPlite luminescence, 48 h; series mostly up to 57.5 µM
Outline: as §1

[6] = system: OV90; assay: as above; details: Gynecologic cancer cell panel viability, ATPlite luminescence, 48 h; series mostly up to 57.5 µM
Outline: as §1

[7] = system: PA-1; assay: as above; details: Gynecologic cancer cell panel viability, ATPlite luminescence, 48 h; series mostly up to 57.5 µM
Outline: as §1

[8] = system: SKOV3; assay: as above; details: Gynecologic cancer cell panel viability, ATPlite luminescence, 48 h; series mostly up to 57.5 µM
Outline: as §1

[9] = system: Tov-21-G; assay: as above; details: Gynecologic cancer cell panel viability, ATPlite luminescence, 48 h; series mostly up to 57.5 µM
Outline: as §1

[10] = system: Tov112D; assay: as above; details: Gynecologic cancer cell panel viability, ATPlite luminescence, 48 h; series mostly up to 57.5 µM
Outline: as §1

[11] = Drug repurposing screens with cells derived from glioblastoma tumor samples (AID 1345199); details: GBM patient neurospheres viability, ATP luminescence, 48 h; Potency: tumour line A unless noted; series mostly up to 46 µM; also: nearly all actives have a fitted effect of over 40% in size
Outline: (§2)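 Primary testing used CD133+ neurospheres from four GBM patients, seven concentrations, 48 h exposure and ATP-based viability; confirmation added three slower-growing patient lines.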

[12] = system: astro; assay: as above; details: viability, ATP luminescence, 48 h; series mostly up to 45.9 µM
Outline: as §2

[13] = qHTS assay to identify inhibitors of the type 1 interferon - major histocompatibility complex class I in skeletal muscle: Counter screen cell viability and HiBit confirmation (AID 1347412); details: iHSKM muscle cells + IFN-b, HiBiT or CellTiter-Glo, 24 h; also: nearly all actives have a fitted effect of over 60% in size
Outline: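 Duplicate plates, pinned identically: one read for HiBiT-tagged endogenous HLA-B luminescence, the other for ATP-content viability via CellTiter Glo. Cells were genome-engineered human myoblasts given 4 ng/ml IFN-b; compounds 12-pt, 1:3 from 46 uM final; 24 hr exposure.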
Potency is read from the fitted curve at half-maximal effect; tags tell the direction and shape of the fitted curve.

COCCOc1ccc2c(c1)ncn2-c1ccc2cccc(N3CCC(N)CC3)c2n1
Potency [1]: inconclusive: 25.1 µM [cytotoxic, single point] | Potency [2]: active: 28.2 µM | Potency [3]: inconclusive: 22.4 µM [cytotoxic, single point] | Potency [4]: inconclusive: 28.2 µM [cytotoxic, partial curve, poor fit] | Potency [5]: active: 17.8 µM | Potency [6]: inconclusive: 2.51 µM [cytotoxic, partial curve, poor fit] | Potency [7]: active: 7.94 µM | Potency [8]: inconclusive: 39.8 µM [cytotoxic, single point] | Potency [9]: inconclusive: 7.08 µM [cytotoxic, full curve] | Potency [10]: inconclusive: 25.1 µM [cytotoxic, single point]

CCC(=O)N1CCN(c2ccc(-n3c(=O)ccc4cnc5ccc(-c6cnc7ccccc7c6)cc5c43)cc2C(F)(F)F)CC1
Potency [1]: inconclusive: 0.126 µM [cytotoxic, full curve] | Potency [2]: active: 0.141 µM | Potency [3]: inconclusive: 0.316 µM [cytotoxic, full curve] | Potency [4]: active: 0.1 µM | Potency [6]: inconclusive: 0.0631 µM [cytotoxic, full curve, poor fit] | Potency [7]: active: 0.126 µM | Potency [8]: inconclusive: 0.316 µM | Potency [9]: active: 0.0794 µM | Potency [10]: inconclusive: 0.141 µM [cytotoxic, full curve]

COc1ccc(CCN(C)CCCC(C#N)(c2ccc(OC)c(OC)c2)C(C)C)cc1OC (centres undefined)
Potency [1]: inactive | Potency [6]: inconclusive: 20 µM [cytotoxic, partial curve] | Potency [11]: active: 10 µM | Potency [12]: inconclusive: 22.4 µM [inhibitor, single point]

Nc1ccccc1NC(=O)c1ccc(CNc2nccc(-c3cccnc3)n2)cc1
Potency [1]: active: 8.91 µM | Potency [3]: active: 0.891 µM | Potency [4]: inconclusive: 8.91 µM [cytotoxic, partial curve] | Potency [5]: active: 3.55 µM | Potency [6]: inconclusive: 0.891 µM [cytotoxic, full curve, poor fit] | Potency [7]: active: 0.708 µM | Potency [8]: active: 3.98 µM | Potency [9]: active: 2.82 µM

Cn1cc(-c2ccncc2)c(-c2ccc(OCc3ccc4ccccc4n3)cc2)n1
Potency [1]: inactive | Potency [5]: inconclusive: 31.6 µM [cytotoxic, single point] | Potency [8]: inconclusive: 17.8 µM [cytotoxic, partial curve, poor fit]

COc1cc(Nc2c(C#N)cnc3cc(OCCCN4CCN(C)CC4)c(OC)cc23)c(Cl)cc1Cl
Potency [1]: inconclusive: 39.8 µM [cytotoxic, single point] and inconclusive: 28.2 µM [cytotoxic, partial curve, poor fit] | Potency [3]: active: 25.1 µM | Potency [4]: inconclusive: 25.1 µM [cytotoxic, single point] and inconclusive: 20 µM [cytotoxic, single point] | Potency [5]: inconclusive: 39.8 µM [cytotoxic, single point] and inconclusive: 31.6 µM [cytotoxic, single point] | Potency [6]: inconclusive: 11.2 µM [cytotoxic, partial curve, poor fit] and inconclusive: 5.01 µM [cytotoxic, partial curve] | Potency [7]: inconclusive: 31.6 µM [cytotoxic, partial curve, poor fit] and active: 11.2 µM | Potency [8]: inconclusive: 25.1 µM [cytotoxic, partial curve, poor fit] and active: 10 µM | Potency [9]: inconclusive: 3.98 µM [cytotoxic, partial curve, poor fit] and inconclusive: 2.51 µM [cytotoxic, full curve] | Potency [10]: inconclusive: 28.2 µM [cytotoxic, single point] and inconclusive: 39.8 µM [cytotoxic, single point] | Potency [12]: inconclusive: 22.4 µM [inhibitor, partial curve, poor fit] | Potency ([13]; HiBiT): active: 11.1 µM | Potency ([13]; Viability): active: 24.9 µM

Cc1ccc(C(=O)Nc2ccc(CN3CCN(C)CC3)c(C(F)(F)F)c2)cc1C#Cc1cnc2cccnn12
Potency [1]: active: 14.1 µM | Potency [2]: active: 8.91 µM | Potency [4]: inconclusive: 25.1 µM [cytotoxic, single point] | Potency [5]: inconclusive: 25.1 µM [cytotoxic, single point] | Potency [6]: active: 15.8 µM | Potency [8]: active: 10 µM | Potency [9]: active: 7.08 µM | Potency ([13]; Viability): active: 15.7 µM

CC[C@H](CC#N)OC(=O)N[C@@H](C)c1cccc(NC(=O)Nc2ccc(-c3cnco3)c(OC)c2)c1
Potency [1]: inconclusive: 3.16 µM [cytotoxic, single point] | Potency [3]: inconclusive: 2.51 µM [cytotoxic, full curve] | Potency [4]: active: 1.78 µM | Potency [6]: inconclusive: 0.794 µM [cytotoxic, full curve] | Potency [7]: active: 0.355 µM | Potency [8]: active: 6.31 µM | Potency [9]: active: 1.26 µM | Potency [10]: inconclusive: 1.12 µM [cytotoxic, full curve] | Potency ([13]; HiBiT): inconclusive: 2.49 µM [inhibitor, full curve]

Cc1cnc(Nc2cccc(CN3CCOCC3)c2)nc1Nc1cccc(S(=O)(=O)NC(C)(C)C)c1
Potency [1]: inconclusive: 3.16 µM [cytotoxic, single point] | Potency [3]: inconclusive: 1.78 µM [cytotoxic, partial curve, poor fit] | Potency [6]: inactive | Potency [7]: inconclusive: 3.55 µM [cytotoxic, partial curve, poor fit] | Potency [8]: active: 0.794 µM | Potency [9]: inconclusive: 2.51 µM [cytotoxic, partial curve, poor fit] | Potency [10]: inconclusive: 1.78 µM [cytotoxic, full curve, poor fit] | Potency ([13]; Viability): inconclusive: 7.87 µM [cytotoxic, partial curve, poor fit]

CN(C)CCCN1c2ccccc2CCc2ccc(Cl)cc21
Potency [1]: inconclusive: 39.8 µM [cytotoxic, single point] | Potency [2]: inconclusive: 39.8 µM [cytotoxic, single point] | Potency [4]: inconclusive: 39.8 µM [cytotoxic, single point] | Potency [6]: inconclusive: 20 µM [cytotoxic, partial curve, poor fit] | Potency [8]: inconclusive: 17.8 µM [cytotoxic, partial curve, poor fit] | Potency [10]: inconclusive: 25.1 µM [cytotoxic, single point] | Potency [12]: inconclusive: 12.6 µM [inhibitor, partial curve]

S=P(N1CC1)(N1CC1)N1CC1
Potency [1]: inconclusive: 50.1 µM [rising, partial curve, poor fit] | Potency [2]: inactive | Potency [6]: inconclusive: 35.5 µM [cytotoxic, partial curve, poor fit] | Potency [11]: inconclusive: 35.5 µM [inhibitor, partial curve, poor fit] and inconclusive: 28.2 µM [inhibitor, partial curve]

Oc1ccc([C@@H]2Oc3ccc(O)cc3[C@@H]3CCC[C@@H]32)cc1
Potency [1]: inconclusive: 39.8 µM [cytotoxic, single point] | Potency [3]: inconclusive: 39.8 µM [cytotoxic, single point] | Potency [4]: inconclusive: 39.8 µM [cytotoxic, single point] | Potency [5]: inconclusive: 28.2 µM [cytotoxic, single point] | Potency [7]: inconclusive: 39.8 µM [cytotoxic, single point] | Potency [8]: inconclusive: 28.2 µM [cytotoxic, single point] | Potency [10]: inconclusive: 39.8 µM [cytotoxic, single point]

CCCCCN(CCC12CC3CC(CC(C3)C1)C2)C(=O)NCCCc1ccncc1
Potency [1]: inactive | Potency [6]: inactive

N#CC1(c2cccc(C(=O)Nc3cc(Oc4ccc5nc(NC(=O)C6CC6)sc5n4)ccc3F)c2Cl)CC1
Potency [1]: inconclusive: 12.6 µM [cytotoxic, partial curve] | Potency [2]: inconclusive: 10 µM [cytotoxic, partial curve, poor fit] | Potency [4]: inconclusive: 39.8 µM [cytotoxic, single point] | Potency [6]: inconclusive: 0.355 µM [cytotoxic, full curve, poor fit] | Potency [7]: active: 10 µM | Potency [8]: active: 20 µM | Potency [9]: active: 3.98 µM | Potency [10]: active: 5.62 µM

CCCCC(=O)O[C@]1(C(=O)CO)[C@@H](C)C[C@H]2[C@@H]3CCC4=CC(=O)C=C[C@]4(C)[C@@]3(F)[C@@H](O)C[C@@]21C
Potency [1]: inactive | Potency [6]: inactive | Potency [8]: inconclusive: 3.98 µM [cytotoxic, single point]

COc1cc2c(Nc3ccc(NC(=O)c4ccccc4)cc3)ncnc2cc1OCCCN1CCOCC1
Potency [1]: inconclusive: 2 µM [cytotoxic, full curve] | Potency [3]: inconclusive: 25.1 µM [cytotoxic, partial curve] | Potency [5]: inconclusive: 39.8 µM [cytotoxic, single point] | Potency [6]: active: 25.1 µM | Potency [8]: active: 11.2 µM | Potency [9]: inconclusive: 15.8 µM [cytotoxic, partial curve, poor fit]

CN(C)CCC=C1c2ccccc2C=Cc2ccccc21
Potency [1]: inactive | Potency [2]: inconclusive: 28.2 µM [cytotoxic, partial curve, poor fit] | Potency [6]: inconclusive: 39.8 µM [cytotoxic, single point] | Potency [8]: inconclusive: 39.8 µM [cytotoxic, single point] | Potency [9]: inactive | Potency [10]: inconclusive: 35.5 µM [cytotoxic, single point]
